Laboratory results: the RNAGym collection of RNA variant scans (doi:10.1073/pnas.2313332121)
This sample is rich in variants without activity.

B1: TPR 5TU (parent)
chain: GGAUCUUCUCGAUCUAACAAAAAAGACAAAUCUGCCACAAAGCUUGAGAGCAUCUUCGGAUGCAGAGGCGGCAGCCUUCGGUGGCGCGAUAGCGCCAACGUUCUCAACUAUGACACGCAAAACGCGUGCUCCGUUGAAUGGAGUUUAUCAUG

Variants of: B1
Experiment: polymerase ribozyme fitness, log enrichment relative to wild type (log ratio); higher = more active; in vitro selection for triplet polymerase activity
Outline: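 Fitness measures genotype enrichment against wild-type enrichment on a logarithmic scale, with inverse-variance-weighted averaging of replicates. The logarithm is base 2, and genotypes were kept only with ≥10 input reads and ≥1 read per output in Illumina sequencing. The sequenced libraries came from one triplicate in vitro selection round, including frozen incubation at −7 °C, of PCR-built, transcribed mutant libraries of each subunit of a heterodimeric triplet polymerase ribozyme.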
In the case of A29C C51A C69U C79A G83C C85U C132U U151C, the “polymerase ribozyme fitness (log ratio)” value is reported as at most -4.2. With A28U C57G G65U G83A A89U A98U C118A the “polymerase ribozyme fitness (log ratio)” value was at most -4.2. For A29C U53A U55A C72U C85A U109G U134A G136A U144G C149A, the “polymerase ribozyme fitness (log ratio)” value was at most -4.2. With A29U A47G C85A C132G the “polymerase ribozyme fitness (log ratio)” value was at most -4.2. In the case of A29C U53A A73C G84C C103G A107U U134G, the “polymerase ribozyme fitness (log ratio)” value is reported as at most -4.2. With A29G A91U the “polymerase ribozyme fitness (log ratio)” value was at most -4.2. In the case of A28U U127C, the “polymerase ribozyme fitness (log ratio)” value is reported as at most -4.2. For A29G U56A U77C, the “polymerase ribozyme fitness (log ratio)” value was at most -4.2. In the case of A29G G86A U102A G136C U144C, the “polymerase ribozyme fitness (log ratio)” value is reported as at most -4.2. In the case of A29G G34A A49U G59U C76U C108A A119G, the “polymerase ribozyme fitness (log ratio)” value is reported as at most -4.2. For A28U G81U U82C G92A C108A G112U U135A, the “polymerase ribozyme fitness (log ratio)” value was at most -4.2. With A29U C36A U55A G65C C93G C96G C116U C118A U135G A137G the “polymerase ribozyme fitness (log ratio)” value was at most -4.2. In the case of A29C C57A C93U A120U U148A, the “polymerase ribozyme fitness (log ratio)” value is reported as at most -4.2. For A29G G46C A47C C132U U146A, the “polymerase ribozyme fitness (log ratio)” value was -4.16. In the case of A28U A89C, the “polymerase ribozyme fitness (log ratio)” value is reported as at most -4.2. With A29U A40G G50C C72U G86A A91C the “polymerase ribozyme fitness (log ratio)” value was at most -4.2. With A29U C32G A60G C96A G140C A142C the “polymerase ribozyme fitness (log ratio)” value was at most -4.2. For A29U A47C A89G C95G C108A G133C A138G, the “polymerase ribozyme fitness (log ratio)” value was at most -4.2. For A29C A39C U53A A122G C123A U135G U146A, the “polymerase ribozyme fitness (log ratio)” value was at most -4.2. For A29U C36A G65C C79A G86A G141C, the “polymerase ribozyme fitness (log ratio)” value was at most -4.2. For A29G A47U C76G U102A C105U, the “polymerase ribozyme fitness (log ratio)” value was at most -4.2. In the case of A28U G59C A64G A73C A91G G141U, the “polymerase ribozyme fitness (log ratio)” value is reported as at most -4.2. For A29U A39C A40U U45G U77G, the “polymerase ribozyme fitness (log ratio)” value was at most -4.2. With A29G A41U A73U G83A the “polymerase ribozyme fitness (log ratio)” value was at most -4.2. In the case of A28U C57U U90C C95A C116G, the “polymerase ribozyme fitness (log ratio)” value is reported as at most -4.2. With A29C U53A the “polymerase ribozyme fitness (log ratio)” value was at most -4.2. With A28U G42U C51G U53C G59U U90G A91G G140C U144G A150C the “polymerase ribozyme fitness (log ratio)” value was at most -4.2. With A28U C87G C93A C103G G143C the “polymerase ribozyme fitness (log ratio)” value was at most -4.2. For A28U C123U, the “polymerase ribozyme fitness (log ratio)” value was at most -4.2. With A29G C54U U55A C57G C76G C87G C149U the “polymerase ribozyme fitness (log ratio)” value was at most -4.2. In the case of A29C A64C U90C, the “polymerase ribozyme fitness (log ratio)” value is reported as at most -4.2. In the case of A29C C36A G59U G80U C87A G117C, the “polymerase ribozyme fitness (log ratio)” value is reported as at most -4.2. With A29U C38U C43A G84A C93G U109G the “polymerase ribozyme fitness (log ratio)” value was at most -4.2. With A28U U56A G94C U134A U135G A150C the “polymerase ribozyme fitness (log ratio)” value was at most -4.2. With A28U C35A C75G U77A A91U C96U G141A the “polymerase ribozyme fitness (log ratio)” value was at most -4.2. In the case of A29C A47C A60G G83U A120U, the “polymerase ribozyme fitness (log ratio)” value is reported as at most -4.2. For A28U A49G C123A, the “polymerase ribozyme fitness (log ratio)” value was at most -4.2. For A29C A39G U56A C79U, the “polymerase ribozyme fitness (log ratio)” value was at most -4.2. In the case of A29U A37C, the “polymerase ribozyme fitness (log ratio)” value is reported as at most -4.2. With A29C C43U G46U G59A C85U the “polymerase ribozyme fitness (log ratio)” value was at most -4.2. In the case of A29C C75A G80A G92C A97U G100C A119U U146C, the “polymerase ribozyme fitness (log ratio)” value is reported as at most -4.2. With A29U A49C A60U C76U C96A A106U A142C the “polymerase ribozyme fitness (log ratio)” value was at most -4.2. In the case of A29U C43U C95A C125A, the “polymerase ribozyme fitness (log ratio)” value is reported as at most -4.2. In the case of A29U A47C U55G C87U A98G, the “polymerase ribozyme fitness (log ratio)” value is reported as at most -4.2. For A29C U33G G42C A52C C76U G84A G100C, the “polymerase ribozyme fitness (log ratio)” value was at most -4.2. With A29G U109G U135C G136A G141U the “polymerase ribozyme fitness (log ratio)” value was at most -4.2. For A28U G50A U55A A66C C69G G100A U101A A110U, the “polymerase ribozyme fitness (log ratio)” value was at most -4.2. In the case of A29C U53A C57U C76U U82A G83A C114U G143U, the “polymerase ribozyme fitness (log ratio)” value is reported as at most -4.2. For A28U U109A A137G G143A U146G, the “polymerase ribozyme fitness (log ratio)” value was at most -4.2. For A29G U45A C96A A110U A137C, the “polymerase ribozyme fitness (log ratio)” value was at most -4.2. In the case of A29C U33G G48C C54A U55G C87U, the “polymerase ribozyme fitness (log ratio)” value is reported as at most -4.2. With A29G C87G the “polymerase ribozyme fitness (log ratio)” value was at most -4.2. In the case of A29G C87A, the “polymerase ribozyme fitness (log ratio)” value is reported as at most -4.2. With A28U G65C G86A C99U A113G A147G U148G the “polymerase ribozyme fitness (log ratio)” value was at most -4.2. With A28U C87G U127A G133C U139A the “polymerase ribozyme fitness (log ratio)” value was -4.15. With A29U A73G G80A the “polymerase ribozyme fitness (log ratio)” value was at most -4.2. With A29U A91C C96U A97U the “polymerase ribozyme fitness (log ratio)” value was at most -4.2. For A29U A49C G68U A73C A91C C103G, the “polymerase ribozyme fitness (log ratio)” value was at most -4.2. With A28U C54U C76A C114U the “polymerase ribozyme fitness (log ratio)” value was -3.97. With A29G C103G U104G the “polymerase ribozyme fitness (log ratio)” value was at most -4.2. With A29C A47G G70C C96U G100A the “polymerase ribozyme fitness (log ratio)” value was at most -4.2. In the case of A28U U102G, the “polymerase ribozyme fitness (log ratio)” value is reported as at most -4.2. With A29C A91C C93A G117U the “polymerase ribozyme fitness (log ratio)” value was at most -4.2. In the case of A29C G58C G74C, the “polymerase ribozyme fitness (log ratio)” value is reported as at most -4.2. With A29G U61A U139G A142U the “polymerase ribozyme fitness (log ratio)” value was at most -4.2. For A29G C35A U55A G62A C95A A110G A138C A150G, the “polymerase ribozyme fitness (log ratio)” value was at most -4.2. For A29G G58C A60C G71A C129G, the “polymerase ribozyme fitness (log ratio)” value was at most -4.2. In the case of A29G A37U A47U U55A G84U A89G A120C G140C U144G, the “polymerase ribozyme fitness (log ratio)” value is reported as at most -4.2. With A28U C54A A91C C95A the “polymerase ribozyme fitness (log ratio)” value was at most -4.2. For A28U A64G A66U A73U G81U C95U C114U C149A, the “polymerase ribozyme fitness (log ratio)” value was at most -4.2. For A29C A39C C51U C57A G67A C95G, the “polymerase ribozyme fitness (log ratio)” value was at most -4.2. For A29G U77C C85A C108G, the “polymerase ribozyme fitness (log ratio)” value was at most -4.2. For A29C A49C G83A C87G C118G, the “polymerase ribozyme fitness (log ratio)” value was at most -4.2. For A29U A40C G59U C132G U146G, the “polymerase ribozyme fitness (log ratio)” value was at most -4.2. For A29U A47C C54U C93G G117U G128U, the “polymerase ribozyme fitness (log ratio)” value was at most -4.2. With A29G A40C C87G G100C A150C the “polymerase ribozyme fitness (log ratio)” value was at most -4.2. With A29G U55A A66U C69A G84U A120G U144C the “polymerase ribozyme fitness (log ratio)” value was at most -4.2. With A29C C35A A66C C69G C87U C99A the “polymerase ribozyme fitness (log ratio)” value was at most -4.2. For A29C C79U C85U C96A G128A U135A U148G, the “polymerase ribozyme fitness (log ratio)” value was at most -4.2. In the case of A29C C96G A121G U151C, the “polymerase ribozyme fitness (log ratio)” value is reported as at most -4.2. With A28U C57A A60G A122C G133U the “polymerase ribozyme fitness (log ratio)” value was at most -4.2. For A28U G117U, the “polymerase ribozyme fitness (log ratio)” value was at most -4.2. With A28U U31A A39G A41C C75G C76U G83U the “polymerase ribozyme fitness (log ratio)” value was at most -4.2. For A29C C69G C76U C95U C131A, the “polymerase ribozyme fitness (log ratio)” value was at most -4.2.
